Assay results taken from publication PMC7757826.
Results are given in words; binding and its absence hold for the method and conditions named. In cells and extracts the contact can be indirect. Some entries that bind do so weakly or less than the wild type. Values belong to the molecule of their own block, whether it stands above or below them.

Protein sequences, listed by entry. Tags and fused reporters are not part of them.
UniProt P21926: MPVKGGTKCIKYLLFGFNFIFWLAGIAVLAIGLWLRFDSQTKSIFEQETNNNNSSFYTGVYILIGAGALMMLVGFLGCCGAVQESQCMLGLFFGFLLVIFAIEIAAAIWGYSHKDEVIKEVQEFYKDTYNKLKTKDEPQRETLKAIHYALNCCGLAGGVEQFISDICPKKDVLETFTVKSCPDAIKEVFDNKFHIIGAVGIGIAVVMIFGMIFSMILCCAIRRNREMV

Key:
[1] = biological target: T1, CD82 (Tspan-27) (human (endogenous in A2780, OVCAR-3, SKOV-3 and A2780cis cells)) (UniProt P27701); experiment: co-IP; OVCAR-3 cells lysed in 1% Triton X-100 buffer; lysates precipitated with antibodies to the studied molecules, western blot
T1 sequence: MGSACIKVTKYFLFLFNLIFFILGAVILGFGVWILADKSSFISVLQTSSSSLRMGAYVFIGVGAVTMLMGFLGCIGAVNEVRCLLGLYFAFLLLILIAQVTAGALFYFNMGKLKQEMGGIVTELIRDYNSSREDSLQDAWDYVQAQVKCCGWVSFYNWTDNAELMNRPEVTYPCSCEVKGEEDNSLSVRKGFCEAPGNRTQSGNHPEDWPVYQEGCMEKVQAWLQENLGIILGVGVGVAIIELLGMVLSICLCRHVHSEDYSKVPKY

[2] = biological target: T2, Epithelial cell adhesion molecule (EpCAM) (human (endogenous in A2780, OVCAR-3, SKOV-3 and A2780cis cells)) (UniProt P16422); experiment: as above
T2 sequence: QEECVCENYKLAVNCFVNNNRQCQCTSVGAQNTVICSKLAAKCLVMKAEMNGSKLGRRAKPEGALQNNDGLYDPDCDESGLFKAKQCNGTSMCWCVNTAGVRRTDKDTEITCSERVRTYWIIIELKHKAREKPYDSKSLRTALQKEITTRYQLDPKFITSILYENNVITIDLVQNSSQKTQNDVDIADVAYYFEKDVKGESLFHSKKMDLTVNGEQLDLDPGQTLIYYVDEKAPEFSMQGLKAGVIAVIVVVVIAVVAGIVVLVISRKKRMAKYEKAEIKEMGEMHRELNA

[3] = biological target: T3, claudin-7 (human (endogenous in A2780, OVCAR-3, SKOV-3 and A2780cis cells)) (UniProt O95471); experiment: co-IP; A2780 cells lysed in 1% Triton X-100 buffer; lysates precipitated with antibodies to the studied molecules, western blot
T3 sequence: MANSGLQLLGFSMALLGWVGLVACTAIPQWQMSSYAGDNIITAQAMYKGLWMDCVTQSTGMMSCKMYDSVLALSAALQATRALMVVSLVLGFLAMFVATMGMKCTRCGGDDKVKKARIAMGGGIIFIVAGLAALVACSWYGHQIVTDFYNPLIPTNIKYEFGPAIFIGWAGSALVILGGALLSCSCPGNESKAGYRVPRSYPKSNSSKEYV

[4] = biological target: T1, CD82 (Tspan-27) (human (endogenous in A2780, OVCAR-3, SKOV-3 and A2780cis cells)); experiment: as above
[5] = biological target: claudin-4 (human (endogenous in A2780, OVCAR-3, SKOV-3 and A2780cis cells)) (UniProt O14493); experiment: as above
[6] = biological target: T4, claudin-4 (human (endogenous in A2780, OVCAR-3, SKOV-3 and A2780cis cells)), O14493; experiment: as above; settings: remark: other sources report otherwise
T4 chain: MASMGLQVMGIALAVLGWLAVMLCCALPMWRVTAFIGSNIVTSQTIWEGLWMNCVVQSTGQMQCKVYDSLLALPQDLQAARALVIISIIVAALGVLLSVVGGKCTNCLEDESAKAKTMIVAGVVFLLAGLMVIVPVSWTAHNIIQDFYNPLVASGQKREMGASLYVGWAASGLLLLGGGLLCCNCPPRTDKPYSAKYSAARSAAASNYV

[7] = biological target: T4, claudin-4 (human (endogenous in A2780, …)); experiment: co-IP; OVCAR-3 cells lysed in 1% Triton X-100 buffer; lysates precipitated with antibodies to the studied molecules, western blot; settings: remark: other sources report otherwise
[8] = biological target: T5, claudin-7 (human (endogenous in A2780, OVCAR-3, SKOV-3 and A2780cis cells)), O95471; experiment: cross-linking + co-IP; A2780 cells treated first with 2-BP and then with DSP or DTSSP; anti-CD82 or anti-claudin-7 precipitates; settings: remark: other sources report otherwise
T5 chain: T3 sequence

[9] = biological target: T5, claudin-7 (human (endogenous in A2780, …)); experiment: cross-linking + co-IP; A2780 cells treated with the membrane-impermeable cross-linker DTSSP (1 mM, 30 min, 37 °C), lysed in RIPA buffer; anti-CD82 or anti-claudin-7 precipitates; settings: remark: other sources report otherwise
[10] = biological target: T5, claudin-7 (human (endogenous in A2780, …)); experiment: cross-linking + co-IP; OVCAR-3 cells treated with DSP or DTSSP (1 mM, 30 min, 37 °C), with or without 2-BP beforehand, lysed in RIPA buffer; anti-CD82 or anti-claudin-7 precipitates; settings: remark: other sources report otherwise
[11] = biological target: T5, claudin-7 (human (endogenous in A2780, …)); experiment: cross-linking + co-IP; SKOV-3 cells treated with DSP or DTSSP (1 mM, 30 min, 37 °C), claudin-7 precipitates also after 2-BP beforehand, lysed in RIPA buffer; anti-CD82 or anti-claudin-7 precipitates; settings: remark: other sources report otherwise
[12] = biological target: T5, claudin-7 (human (endogenous in A2780, …)); experiment: cross-linking + co-IP; A2780 cells treated with the membrane-permeable cross-linker DSP (1 mM, 30 min, 37 °C), lysed in RIPA buffer; anti-CD82 or anti-claudin-7 precipitates; settings: remark: other sources report otherwise
[13] = biological target: T1, CD82 (Tspan-27) (human (endogenous in A2780, OVCAR-3, SKOV-3 and A2780cis cells)); experiment: co-IP; A2780cis (cisplatin-resistant) cells lysed in 1% Triton X-100 buffer; lysates precipitated with antibodies to the studied molecules, western blot
[14] = biological target: T2, Epithelial cell adhesion molecule (EpCAM) (human (endogenous in A2780, OVCAR-3, SKOV-3 and A2780cis cells)); experiment: as above
[15] = biological target: T1, CD82 (Tspan-27) (human (endogenous in A2780, OVCAR-3, SKOV-3 and A2780cis cells)); experiment: co-IP; tumours of SKOV-3 xenograft nude mice, homogenised in 50 mM Tris-HCl pH 8.0, 150 mM NaCl, 1% Triton X-100; immunoprecipitation and western blot
[16] = biological target: T2, Epithelial cell adhesion molecule (EpCAM) (human (endogenous in A2780, OVCAR-3, SKOV-3 and A2780cis cells)); experiment: as above
[17] = biological target: T1, CD82 (Tspan-27) (human (endogenous in A2780, OVCAR-3, SKOV-3 and A2780cis cells)); experiment: co-IP; SKOV-3 cells lysed in 1% Triton X-100 buffer; lysates precipitated with antibodies to the studied molecules, western blot
[18] = biological target: T2, Epithelial cell adhesion molecule (EpCAM) (human (endogenous in A2780, OVCAR-3, SKOV-3 and A2780cis cells)); experiment: as above
[19] = biological target: T2, Epithelial cell adhesion molecule (EpCAM) (human (endogenous in A2780, OVCAR-3, SKOV-3 and A2780cis cells)); experiment: co-IP; A2780 cells lysed in 1% Triton X-100 buffer; lysates precipitated with antibodies to the studied molecules, western blot

- binding [1]: binds
- binding [2]: binds
- binding [3]: binds weakly
- binding [4]: binds
Molecule: claudin-3 (from UniProt O15551 1-220)

- binding [1]: binds
- binding [5]: binds
- binding [4]: binds
Molecule: CD9 (Tetraspanin-29) (from UniProt P21926 1-228)

- binding [2]: binds
- binding [3]: binds weakly
B1: CD82 (Tspan-27) (protein, UniProt P27701 1-267)
chain: T1 sequence

- binding [6]: binds
- binding [7]: binds
B2: claudin-3, O15551 1-220 (protein)
chain: MSMGLEITGTALAVLGWLGTIVCCALPMWRVSAFIGSNIITSQNIWEGLWMNCVVQSTGQMQCKVYDSLLALPQDLQAARALIVVAILLAAFGLLVALVGAQCTNCVQDDTAKAKITIVAGVLFLLAALLTLVPVSWSANTIIRDFYNPVVPEAQKREMGAGLYVGWAAAALQLLGGALLCCSCPPREKKYTATKVVYSAPRSTGPGASLGTGYDRKDYV

- binding [8]: binds
- binding [9]: binds
- binding [10]: binds
- binding [6]: binds
- binding [11]: binds
- binding [12]: binds
B3: claudin-4, O14493 1-209 (protein)
chain: T4 chain

- binding [13]: binds
- binding [14]: binds
- binding [15]: binds
- binding [16]: binds
- binding [17]: binds
- binding [18]: binds
- binding [1]: binds
- binding [2]: binds
- binding [4]: binds
- binding [19]: binds weakly
B4: claudin-7 (protein, UniProt O95471 1-211)
chain: T3 sequence
